Measured values taken from PubChem BioAssay (NCATS).
This list was built around the results that the source calls inconclusive (neither active nor inactive); the mix of calls is not that of the screen. For some of these results: Potencies beside an inconclusive call are fits to weak or partial responses and may not hold up. Active and inactive are the calls of the source. Unless noted, the call rests on the fitted dose curve; in most records, active means well fitted curve in the direction sought with a large enough effect; inconclusive means small, poorly fitted or top-dose-only effect, or another doubt; inactive means no such curve, though single readings can be large; an effect the other way counts as inactive or inconclusive.

Tests used:
[1] = NFAT Signaling Pathway (AID 444; active means well fitted curve in either direction with a large enough effect, not every such curve was filed as active; inconclusive means small, poorly fitted or top-dose-only effect, or another doubt;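 further: carbachol stimulus at about its EC50 of 1 µM final; on the % scale 0 is the no-effect control and ±100 the full control effect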); details: Jurkat NFAT-bla M1, carbachol, beta-lactamase ratio, 5 h; at 17.2 µM (top of the series)
How it was run: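 Jurkat cells carrying an NFAT-driven β-lactamase reporter and co-transfected muscarinic M1 receptor were treated with compound plus carbachol (1 uM final, an EC50 level) for 5 h at 37 °C. CCF4 loading followed for 1 h at RT; 460/530 nm ratio gave %activity.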

CAOV3 = assay: Primary qHTS to identify gynecologic anti-cancer compounds using libraries of approved drugs and bioactive compounds (AID 1345084); details: Gynecologic cancer cell panel viability, ATPlite luminescence, 48 h; series mostly up to 57.5 µM; further: nearly all actives have a fitted effect of over 55% in size; further: potency means the concentration at half of the fitted maximal effect; on activity change, negative = cytotoxicity: on the % scale 0 is the no-effect control and ±100 the full control effect
How it was run: (§1)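 ATP-based viability (ATPlite), 1,000 cells/well, 16 h pre-incubation, 48 h compound at 37 C, 5% CO2, 15 min RT before read.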

[2] = P-glycoprotein substrates identified in KB-8-5-11 adenocarcinoma cell line, qHTS therapeutic library screen (AID 1346987); details: activity change, negative = cytotoxicity: at 44.5 µM (top of the series); further: on the % scale 0 is the no-effect control and ±100 the full control effect; nearly all actives have a fitted effect of over 65% in size
How it was run: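 P-gp-mediated resistance screen: KB-8-5-11 cells treated 72 h with compounds in dose-response. CellTiter-Glo viability.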

Hek293T = assay: Primary qHTS to identify gynecologic anti-cancer compounds using libraries of approved drugs and bioactive compounds (AID 1345084); details: Gynecologic cancer cell panel viability, ATPlite luminescence, 48 h, control line for the selectivity index; series mostly up to 57.5 µM; further: nearly all actives have a fitted effect of over 55% in size; further: potency means the concentration at half of the fitted maximal effect; on activity change, negative = cytotoxicity: on the % scale 0 is the no-effect control and ±100 the full control effect
How it was run: as §1

[3] = qHTS of pediatric cancer cell lines to identify multiple opportunities for drug repurposing: Primary screen for DAOY cells (AID 1347090); further: nearly all actives have a fitted effect of over 55% in size; further: potency means the concentration at half of the fitted maximal effect
How it was run: (§2)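 Eight- or eleven-point concentration series, 48 h treatment at 37 degrees C in growth media; readout CellTiter-Glo luminescence. Potency and efficacy were taken from the concentration-response curves.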

[4] = qHTS of pediatric cancer cell lines to identify multiple opportunities for drug repurposing: Primary screen for Rh18 cells (AID 1347102); further: on the % scale 0 is the no-effect control and ±100 the full control effect; nearly all actives have a fitted effect of over 65% in size
How it was run: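 Cells (500-1,000/well) in growth media were settled 5 h at 37 degrees C, then given compounds for 48 h. Viability was read as CellTiter-Glo luminescence. Primary runs used MIPE at 11 points (0.78 nM-46 µM) and NPC at 8 points (0.59 nM-46 µM); follow-ups used 11 points.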

[5] = biological target: Cytochrome P450 3A4 (Homo sapiens) (UniProt P08684); assay: Cytochrome P450 family 3 subfamily A member 4 (CYP3A4) small molecule antagonists: luciferase qHTS assay (AID 1645841; active means well fitted curve in the direction sought with a large enough effect in the repeat runs; inconclusive means weak or mixed curves; inactive means no such curve, though single readings can be large; an effect the other way counts as inactive or inconclusive; further: nearly all actives have a fitted effect of over 45% in size)
How it was run: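 P450-Glo CYP3A4 enzyme with proluciferin substrate was preincubated with DMSO-dissolved compounds for 10 min at room temperature. NADPH regeneration solution started a 1 h reaction. Detection reagent stopped it, and luminescence was read after 20 min.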

OV90 = assay: Primary qHTS to identify gynecologic anti-cancer compounds using libraries of approved drugs and bioactive compounds (AID 1345084); details: Gynecologic cancer cell panel viability, ATPlite luminescence, 48 h; series mostly up to 57.5 µM; further: nearly all actives have a fitted effect of over 55% in size; further: potency means the concentration at half of the fitted maximal effect; on activity change, negative = cytotoxicity: on the % scale 0 is the no-effect control and ±100 the full control effect
How it was run: as §1

PA-1 = assay: as above; details: Gynecologic cancer cell panel viability, ATPlite luminescence, 48 h; series mostly up to 57.5 µM
How it was run: as §1

[6] = tested on: Zika virus NS2B-NS3 protease; assay: Primary screen GU AMC qHTS for Zika virus inhibitors (AID 1347154); further: potency means the concentration at half of the fitted maximal effect; nearly all actives have a fitted effect of over 70% in size
How it was run: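 Unlinked Zika NS2B hydrophilic domain/NS3 protease domain noncovalent complex (25 nM final) in 10 mM Tris-HCl pH 8.0, 0.01% Tween 20, with AMC peptide substrate. Fluorescence (ex 340, em 450 nm) change over 15 min, room temperature; percent inhibition fitted to 4-parameter Hill equation.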

Tov-21-G = assay: Primary qHTS to identify gynecologic anti-cancer compounds using libraries of approved drugs and bioactive compounds (AID 1345084); details: Gynecologic cancer cell panel viability, ATPlite luminescence, 48 h; series mostly up to 57.5 µM; further: nearly all actives have a fitted effect of over 55% in size; further: potency means the concentration at half of the fitted maximal effect
How it was run: as §1

ICS = assay: qHTS profiling for inhibitors of Plasmodium falciparum proliferation (AID 504749); further: potency means the concentration at half of the fitted maximal effect; nearly all actives have a fitted effect of over 60% in size; details: P. falciparum in erythrocytes, SYBR Green DNA, 72 h; series mostly up to 28.7 µM
How it was run: (§3)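 P. falciparum-infected erythrocytes (0.3% parasitemia, 2.5% hematocrit final) were exposed to compounds for 72 h at 37 C in 5% CO2, then lysed with SYBR Green buffer overnight at room temperature; parasite DNA fluorescence was normalized to artemisinin and DMSO controls.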

[7] = qHTS of pediatric cancer cell lines to identify multiple opportunities for drug repurposing: Primary screen for Rh41 cells (AID 1347108); further: nearly all actives have a fitted effect of over 70% in size; further: potency means the concentration at half of the fitted maximal effect
How it was run: (§4)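 CRCs from 8- or 11-point titrations (lowest final 0.59 nM NPC, 0.78 nM MIPE). Cell viability: CellTiter-Glo after 48 h incubation, 15 min room-temperature development, luminescence imaging.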

[8] = qHTS of pediatric cancer cell lines to identify multiple opportunities for drug repurposing: Primary screen for SJ-GBM2 cells (AID 1347091);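 further: plate controls were DMSO neutral control for no effect and bortezomib for full effect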
How it was run: as §2

[9] = qHTS of pediatric cancer cell lines to identify multiple opportunities for drug repurposing: Primary screen for BT-37 cells (AID 1347094); further: potency means the concentration at half of the fitted maximal effect
How it was run: as §4

CP260 = assay: qHTS profiling for inhibitors of Plasmodium falciparum proliferation (AID 504749); further: potency means the concentration at half of the fitted maximal effect; nearly all actives have a fitted effect of over 60% in size; details: P. falciparum in erythrocytes, SYBR Green DNA, 72 h; series mostly up to 28.7 µM
How it was run: as §3

W2 = assay: as above; details: P. falciparum in erythrocytes, SYBR Green DNA, 72 h; activity, negative = inhibition: at 28.7 µM (top of the series)
How it was run: as §3
Tags describe the fitted curve by direction and shape.

Sequence of UniProt P08684 (P08684 whole entry, looked up): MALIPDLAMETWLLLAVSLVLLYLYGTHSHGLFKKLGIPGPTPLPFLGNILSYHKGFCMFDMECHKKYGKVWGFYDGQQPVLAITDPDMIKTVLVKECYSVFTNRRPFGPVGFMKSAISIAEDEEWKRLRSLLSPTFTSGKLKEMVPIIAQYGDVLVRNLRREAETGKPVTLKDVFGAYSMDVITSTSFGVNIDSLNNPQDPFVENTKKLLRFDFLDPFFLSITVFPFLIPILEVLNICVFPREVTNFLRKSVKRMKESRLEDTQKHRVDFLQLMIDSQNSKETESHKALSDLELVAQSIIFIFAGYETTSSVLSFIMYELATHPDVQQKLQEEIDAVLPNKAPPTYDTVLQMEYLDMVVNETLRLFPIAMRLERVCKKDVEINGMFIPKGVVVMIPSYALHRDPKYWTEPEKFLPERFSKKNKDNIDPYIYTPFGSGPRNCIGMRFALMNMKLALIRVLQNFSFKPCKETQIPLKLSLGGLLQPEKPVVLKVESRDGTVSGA

CCCCNC(=O)NS(=O)(=O)c1ccc(C)cc1
inconclusive: activity change, negative = inhibition [1] 142% [activator] | Potency (CAOV3) 39.8 µM [rising, single point]

O=c1cc[nH]c(=O)[nH]1
inactive: Potency [2] | Potency (CAOV3) | Potency (Hek293T)

CC1(c2ccccc2)OC(C(=O)O)=CC1=O (stereo unspecified)
inactive: Potency [3] | Potency [4] | Potency [5] | Potency (OV90)
inconclusive: Potency (Hek293T) 22.4 µM [rising, partial curve, poor fit] | Potency (PA-1) 39.8 µM [rising, partial curve, poor fit]

CCC(CC)(CC(=O)Nc1cccc(/C=C/c2nc(C3CCC3)cs2)c1)C(=O)O
inconclusive: Potency [6] 20 µM [inhibitor, partial curve] | Potency (CAOV3) 28.2 µM [cytotoxic, single point] | Potency (Hek293T) 17.8 µM [cytotoxic, single point] | Potency (OV90) 28.2 µM [cytotoxic, single point] | Potency (PA-1) 39.8 µM [cytotoxic, single point] | Potency (Tov-21-G) 31.6 µM [cytotoxic, single point] | Potency (ICS) 14.1 µM [inhibitor, partial curve, poor fit]

CC(=O)N(c1onc(C)c1C)S(=O)(=O)c1ccc(N)cc1
inactive: Potency [7] | Potency (CAOV3)

C=CC[N+]1([C@H]2C[C@H]3[C@@H]4CC[C@H]5C[C@H](OC(C)=O)[C@@H](N6CCCCC6)C[C@]5(C)[C@H]4CC[C@]3(C)[C@H]2OC(=O)CC)CCCCC1
inactive: Potency [8] | Potency (CAOV3)
inconclusive: Potency (OV90) 25.1 µM [cytotoxic, partial curve, poor fit]

c1ccc(-c2ccc(C(c3ccccc3)n3ccnc3)cc2)cc1 (stereo unspecified)
active: Potency (W2) 5.36 µM
inconclusive: activity change, negative = inhibition [1] -93.1% [inhibitor] | Potency [3] 16.8 µM [cytotoxic, partial curve, poor fit] | Potency [9] 24.6 µM [cytotoxic, single point] | Potency [7] 11.9 µM [cytotoxic, single point] | Potency [6] 31.6 µM [inhibitor, partial curve, poor fit] | Potency (Hek293T) 39.8 µM [cytotoxic, single point] | Potency (CP260) 10 µM [inhibitor, single point]
